# Test results: the supplement of paper PMC8728848
# The list shows a part of the results.
# B1: Gz-CVNH (Gibberella zeae) (protein)
# chain: MGSSHHHHHHSSGLVPRGSHMGNFHESSNNIWLEDGHILHAECGNGEGDYVESTLDLDYYIGNDDGSFSWGGENFSGSASNITLDIEGDDNIPVLRAELNPMDGDPVEANVNLSERIGNDCGTLIFLA
# Columns and labels:
# Test in all cases: glycan array binding signal (z-score within array); higher = stronger binding
# Conditions in all cases: glycan notation: IUPAC condensed, linker removed
# [1] = target: Fuc(a1-3)[Gal(b1-4)]GlcNAc(b1-2)Man(a1-3)[Fuc(a1-3)[Gal(b1-4)]GlcNAc(b1-2)Man(a1-6)]Man(b1-4)GlcNAc(b1-4)[Fuc(a1-6)]GlcNAc
# How it was run: (§1)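 Columns mapping to the same glycan were averaged after glycan names were converted to IUPAC-condensed notation. The data come from 3228 arrays in the Consortium for Functional Glycomics database, limited to those with an available protein sequence. Binding is reported as a within-array Z-score averaged across arrays of one protein sequence and across linkers.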
# [2] = target: Fuc(a1-3)[Gal(b1-4)]GlcNAc(b1-3)Gal(b1-3)[Fuc(a1-4)]GlcNAc
# How it was run: as §1
# [3] = target: Fuc(a1-3)[Gal(b1-4)]GlcNAc(b1-3)GalNAc
# How it was run: as §1
# [4] = target: Fuc(a1-3)[Gal(b1-4)]GlcNAc(b1-4)Gal(b1-4)[Fuc(a1-3)]GlcNAc
# How it was run: as §1
# [5] = target: Fuc(a1-3)[Gal(b1-4)]GlcNAc(b1-4)Gal(b1-4)[Fuc(a1-3)]GlcNAc(b1-4)Gal(b1-4)[Fuc(a1-3)]GlcNAc
# How it was run: as §1
# [6] = target: Fuc(a1-3)[Gal(b1-4)]GlcNAc(b1-6)GalNAc
# How it was run: as §1
# [7] = target: Fuc(a1-3)[Gal(b1-4)]GlcNAc(b1-6)[Gal(b1-3)GlcNAc(b1-3)]Gal(b1-4)Glc
# How it was run: as §1
# [8] = target: Fuc(a1-3)[Gal(b1-4)]GlcNAc(b1-6)[Neu5Ac(a2-3)Gal(b1-3)]GalNAc
# How it was run: as §1
# [9] = target: Fuc(a1-3)[Gal(b1-4)]GlcNAc6S
# How it was run: as §1
# [10] = target: Fuc(a1-3)[Gal3S(b1-4)]GlcNAc
# How it was run: as §1
# [11] = target: Fuc(a1-3)[Gal3S(b1-4)]GlcNAc6S
# How it was run: as §1
# [12] = target: Fuc(a1-3)[GalNAc(b1-4)]GlcNAc
# How it was run: as §1
# [13] = target: Fuc(a1-4)GlcNAc
# How it was run: as §1
# [14] = target: Fuc(b1-3)GlcNAc
# How it was run: as §1
# [15] = target: Gal(a1-2)Gal
# How it was run: as §1
# [16] = target: Gal(a1-3)Gal
# How it was run: as §1
# [17] = target: Gal(a1-3)Gal(b1-3)GlcNAc
# How it was run: as §1
# [18] = target: Gal(a1-3)Gal(b1-3)GlcNAc(b1-2)Man(a1-3)[Gal(a1-3)Gal(b1-3)GlcNAc(b1-2)Man(a1-6)]Man(b1-4)GlcNAc(b1-4)GlcNAc
# How it was run: as §1
# [19] = target: Gal(a1-3)Gal(b1-3)GlcNAc(b1-3)GalNAc
# How it was run: as §1
# [20] = target: Gal(a1-3)Gal(b1-3)[Fuc(a1-4)]GlcNAc(b1-2)Man(a1-3)[Gal(a1-3)Gal(b1-3)[Fuc(a1-4)]GlcNAc(b1-2)Man(a1-6)]Man(b1-4)GlcNAc(b1-4)GlcNAc
# How it was run: as §1
# [21] = target: Gal(a1-3)Gal(b1-4)Glc
# How it was run: as §1
# [22] = target: Gal(a1-3)Gal(b1-4)GlcNAc
# How it was run: as §1
# [23] = target: Gal(a1-3)Gal(b1-4)GlcNAc(b1-3)GalNAc
# How it was run: as §1
# [24] = target: Gal(a1-3)Gal(b1-4)[Fuc(a1-3)]GlcNAc
# How it was run: as §1
# [25] = target: Gal(a1-3)Gal(b1-4)[Fuc(a1-3)]GlcNAc(b1-2)Man(a1-3)[Gal(a1-3)Gal(b1-4)[Fuc(a1-3)]GlcNAc(b1-2)Man(a1-6)]Man(b1-4)GlcNAc(b1-4)GlcNAc
# How it was run: as §1
# [26] = target: Gal(a1-3)GalNAc
# How it was run: as §1
# [27] = target: Gal(a1-3)[Gal(a1-4)]Gal(b1-4)GlcNAc
# How it was run: as §1
# [28] = target: Gal(a1-4)Gal(b1-3)GlcNAc(b1-2)Man(a1-3)[Gal(a1-4)Gal(b1-3)GlcNAc(b1-2)Man(a1-6)]Man(b1-4)GlcNAc(b1-4)GlcNAc
# How it was run: as §1
# [29] = target: Gal(a1-4)Gal(b1-4)Glc
# How it was run: as §1
# [30] = target: Gal(a1-4)Gal(b1-4)GlcNAc
# How it was run: as §1
# [31] = target: Gal(a1-4)Gal(b1-4)GlcNAc(b1-2)Man(a1-3)[Gal(a1-4)Gal(b1-4)GlcNAc(b1-2)Man(a1-6)]Man(b1-4)GlcNAc(b1-4)GlcNAc
# How it was run: as §1
# [32] = target: Gal(a1-4)Gal(b1-4)GlcNAc(b1-3)Gal(b1-4)Glc
# How it was run: as §1
# [33] = target: Gal(a1-4)GlcNAc
# How it was run: as §1
# [34] = target: Gal(a1-6)Glc
# How it was run: as §1
# [35] = target: Gal(b1-2)Gal
# How it was run: as §1
# [36] = target: Gal(b1-3)Gal
# How it was run: as §1
# [37] = target: Gal(b1-3)Gal(b1-4)GlcNAc
# How it was run: as §1
binder,measurement,setting,value
B1,glycan array binding signal (z-score),[1],0.032
same,glycan array binding signal (z-score),[2],-0.114
same,glycan array binding signal (z-score),[3],0.031
same,glycan array binding signal (z-score),[4],-0.109
same,glycan array binding signal (z-score),[5],-0.128
same,glycan array binding signal (z-score),[6],-0.006
same,glycan array binding signal (z-score),[7],-0.145
same,glycan array binding signal (z-score),[8],-0.091
same,glycan array binding signal (z-score),[9],-0.116
same,glycan array binding signal (z-score),[10],-0.123
same,glycan array binding signal (z-score),[11],-0.066
same,glycan array binding signal (z-score),[12],-0.135
same,glycan array binding signal (z-score),[13],-0.152
same,glycan array binding signal (z-score),[14],-0.147
same,glycan array binding signal (z-score),[15],-0.136
same,glycan array binding signal (z-score),[16],-0.137
same,glycan array binding signal (z-score),[17],-0.169
same,glycan array binding signal (z-score),[18],0.025
same,glycan array binding signal (z-score),[19],-0.117
same,glycan array binding signal (z-score),[20],-0.066
same,glycan array binding signal (z-score),[21],-0.152
same,glycan array binding signal (z-score),[22],-0.144
same,glycan array binding signal (z-score),[23],-0.134
same,glycan array binding signal (z-score),[24],-0.145
same,glycan array binding signal (z-score),[25],-0.1
same,glycan array binding signal (z-score),[26],-0.123
same,glycan array binding signal (z-score),[27],-0.135
same,glycan array binding signal (z-score),[28],-0.139
same,glycan array binding signal (z-score),[29],-0.114
same,glycan array binding signal (z-score),[30],-0.14
same,glycan array binding signal (z-score),[31],-0.039
same,glycan array binding signal (z-score),[32],-0.122
same,glycan array binding signal (z-score),[33],-0.153
same,glycan array binding signal (z-score),[34],-0.128
same,glycan array binding signal (z-score),[35],-0.154
same,glycan array binding signal (z-score),[36],-0.164
same,glycan array binding signal (z-score),[37],-0.138
